Laboratory results as given in PubChem BioAssay AID686971 (National Center for Advancing Translational Sciences (NCATS), 2013).
Hit rate of the full screen: of about 360,000 compounds, about 7,500 (2.1%) were called active. This list was built around the results that the source calls inconclusive (neither active nor inactive); the mix of calls is not that of the screen. The call rests on the fitted dose curve; in most records, active means well fitted cell-killing curve with a large enough effect; inconclusive means small, poorly fitted or top-dose-only effect, or effect the other way, or another doubt; inactive means no such curve, though single readings can be large or run the other way. No potency is given beside an inconclusive call; the fits are too rough.

assay: qHTS for induction of synthetic lethality in tumor cells producing 2HG: qHTS for the HT-1080-IDH1KD cell line; conditions: HT-1080 IDH1 knockdown viability, ATP luminescence, 48 h; activity, negative = toxicity: at 46.1 µM (top of the series) unless noted;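 on activity, negative = toxicity: 0% = DMSO wells and -100% = cell-free medium wells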
Summary of the method: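 Cytotoxicity counter-line: IDH1KD HT-1080, 48 h, CellTiter-Glo. Curves classed by r2, magnitude and activity.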
Potency means the concentration at half of the fitted maximal effect; tags describe the fitted curve by direction and shape.

Row | SMILES | Potency | activity, negative = toxicity
1 | Clc1ccc(Oc2nc(Oc3ccc(Cl)cc3)nc(N3CCOCC3)n2)cc1 | inconclusive [cytotoxic, single point] | –
2 | Cc1nn(-c2ccccc2)c(Cl)c1C(=O)NNC(=O)c1ccccc1O | inconclusive [cytotoxic, partial curve] | –
3 | Cc1cnc(NC(=O)CN2CCN(c3ccccn3)CC2)s1 | inactive | –
4 | CC1Cc2ccccc2N1CC(=O)Nc1ccc2c(c1)OCO2 (stereo not given) | inconclusive [cytotoxic, single point] | –
5 | OCCCNc1ncnc2scc(-c3ccc(Cl)cc3)c12 | inconclusive [cytotoxic, partial curve, poor fit] | –
6 | CCCCC(=O)Nc1ncc(Br)s1 | inconclusive [cytotoxic, single point] | –
7 | COc1ccccc1N1C(=O)c2ccc(C(=O)Nc3nccs3)cc2C1=O | inactive | –
8 | CCOC(=O)c1cnc(NCc2ccccc2)nc1C | inactive | –
9 | COc1cc(OC)cc(C(=O)Nc2ccccc2-c2nnn(CC(N)=O)n2)c1 | inconclusive [rising, partial curve, poor fit] | –
10 | COc1cccc(CN2CCC2(C)C(=O)Nc2ccc(C)c(O)c2)c1F (stereo not given) | inconclusive [cytotoxic, partial curve] | –
11 | COc1ccc2oc(C(=O)Nc3ccc(N4CCOCC4)cc3)c(C)c2c1 | inactive | –
12 | O=C(Nc1ccc(C(=O)N2CCCC2)cc1)C1CC1 | inactive | –
13 | CC1(C(=O)NS(=O)(=O)c2cccc(OC(F)F)c2)CCN1C(=O)CCc1cccs1 (stereo not given) | inconclusive [rising, single point] | –
14 | COc1ccc(C2CC(c3ccccc3)=NN2C(=O)COC(=O)c2cccc(O)c2)cc1 (stereo not given) | inconclusive [cytotoxic, full curve, poor fit] | –
15 | CC(NC(=O)c1ccc2c(c1)OCO2)C(c1cccs1)N1CCN(c2ccccc2)CC1 (stereo not given) | inconclusive [cytotoxic, partial curve] | –
16 | O=C(CN1CCCCC1)N1CCCc2c1c(=O)oc1ccc(OCc3ccccc3)cc21 | inconclusive [cytotoxic, single point] | –
17 | CCCN1CNc2c(c(=O)[nH]c(=S)n2CCc2cc(Cl)cc(Cl)c2)C1 | inconclusive [cytotoxic, partial curve] | –
18 | CCOc1ccccc1NC(=O)Cn1nnc(C(=O)NCc2ccco2)c1N | active: 0.0411 µM | –
19 | COc1ccc2nc(NCCCO)[nH]c2c1 | inactive | –
20 | O=C(NN1C(=O)C2C(c3ccccc3)C=CC(c3ccccc3)C2C1=O)c1cccc(Br)c1 (stereo not given) | inconclusive [cytotoxic, single point] | –
21 | CN1CCc2c(C#N)c(N3CCOCC3)nc(NCC3CCCO3)c2C1 (stereo not given) | inactive | –
22 | CC1Nc2ncnc(N3CCc4ccccc4C3)c2N(Cc2ccc(Br)cc2)C1=O (stereo not given) | inconclusive [cytotoxic, single point] | –
23 | CCO[C@H]1OC(C(=O)Nc2ccccc2)=C[C@@H](c2ccc(Br)cc2)[C@@H]1CCCO | inconclusive [cytotoxic, single point] | –
24 | O=[N+]([O-])c1ccc(Sc2nccn2Cc2ccccc2)c([N+](=O)[O-])c1 | inconclusive [cytotoxic, partial curve] | –

Row | SMILES | Potency | activity, negative = toxicity
25 | O=C(NC(O)C(=O)c1ccccc1)c1ccccn1 (stereo not given) | inactive | –
26 | CCCCC1CCC(C(=O)N(CCCC)c2c(N)n(CCCC)c(=O)[nH]c2=O)CC1 (stereo not given) | inactive | –
27 | COc1ccc(/C=C/C(=O)N2CCCc3ccccc32)c(OC)c1 | inactive | –
28 | CC(C)(C)C1CCN2CCC[C@](c3ccccc3)(C1)[C@@]21CO1 (stereo not given in full) | inactive | –
29 | COc1ccc(NC(=O)c2c(C(F)(F)F)nn(C)c2Cl)cc1 | inconclusive [rising, single point] | –
30 | CSCCC(c1nnnn1-c1c(C)cccc1C)N1CCN(C/C=C/c2ccccc2)CC1 (stereo not given) | inconclusive [cytotoxic, single point] | –
31 | CN(C(=O)COc1ccccc1)c1nnc(-c2cccnc2)s1 | inactive | –
32 | COc1cc(SC)ccc1C(=O)N1CCc2ccccc21 | inactive | –
33 | CN1CCN(c2ncnc3c2c(-c2ccccc2)cn3-c2ccc(F)cc2)CC1 | active: 23.1 µM | –
34 | Cc1cc(C(O)c2ncc(-c3ccc(Oc4ccccc4)cc3)[nH]2)ccc1F (stereo not given) | active: 10.3 µM | –
35 | Cn1cc(C(=O)N/N=C/C(Br)=C/c2ccccc2)ccc1=O | inconclusive [cytotoxic, single point] | –
36 | CCn1c(=O)c(=O)n(CC)c2cc(S(=O)(=O)Nc3cccc(OC)c3)ccc21 | inconclusive [cytotoxic, single point] | –
37 | Cc1ccc(S(=O)(=O)N2C[C@H]3C(=O)C[C@@H](c4cccc5ccccc45)N(S(=O)(=O)c4ccc(C)cc4)[C@H]3C[C@H]2c2ccc(Cl)cc2)cc1 | inactive | –
38 | CCCC(=O)Nc1sc(C(=O)Nc2cccc(N)c2)c(C)c1C(=O)OC | inconclusive [cytotoxic, partial curve] | –
39 | CS(=O)(=O)Nc1cccc(NC(=O)C2Cc3c(-c4ccco4)ccnc3O2)c1 (stereo not given) | inconclusive [cytotoxic, single point] | –
40 | C=CCNC(=O)/C(C#N)=C/c1cc(Br)ccc1OC | inconclusive [cytotoxic, single point] | –
41 | C[C@H]1[C@H](C)CC[C@]2(C(=O)O)CC[C@]3(C)C(=CC[C@@H]4[C@@]5(C)C[C@@H](O)[C@H](O)C(C)(C)[C@@H]5CC[C@]43C)[C@H]12 | inactive | –
42 | OC1(c2cccs2)CN(c2ccc(Br)cc2)C2=[N+]1CCCS2 (stereo not given) | inconclusive [cytotoxic, single point] | –
43 | COC(=O)CC1N(S(=O)(=O)c2ccc(C)cc2)c2ccccc2C1(C(=O)OC)C(=O)OC (stereo not given) | inactive | –
44 | Cc1cc(C(=O)c2ccc(Cl)cc2)c(NC(=O)CCl)s1 | inconclusive [cytotoxic, single point] | –
45 | CN(C)C1=NC[C@H](Cc2ccccc2)N1CCCC1CCCCC1 | inconclusive [cytotoxic, partial curve] | –
46 | COc1ccccc1-c1cc(NC=O)c2ncc(-c3ccc(F)cc3)n2c1 | active: 18.4 µM | –
47 | COc1ccc(C#Cc2cccc(-c3nc(C(=O)NCc4ccc(Oc5ccccc5)cc4)cc4c3[C@@H](CCO)N(S(=O)C(C)(C)C)C4)c2)cc1OC (stereo not given in full) | inconclusive [cytotoxic, single point] | –
48 | Cc1ccc(C)c(NC(=S)NC(NC(=O)Cc2cccc3ccccc23)C(Cl)(Cl)Cl)c1 (stereo not given) | – | inconclusive: -7.6% [cytotoxic]

Row | SMILES | Potency | activity, negative = toxicity
49 | NC1=NC(=O)S/C1=C\c1ccc(F)cc1 | inconclusive [cytotoxic, partial curve] | –
50 | CC(=NNC(=S)N1CCN(c2ccccn2)CC1)c1nccs1 | inconclusive [cytotoxic, partial curve, poor fit] | –
51 | CCc1ccc(N2C(=O)CN(Cc3cccs3)C2=S)cc1 | inactive | –
52 | Cc1nc(-c2ccc(S(=O)(=O)Oc3ccc(Cl)cc3Cl)s2)cs1 | inconclusive [cytotoxic, single point] | –
53 | Cc1cc(C)cc(-n2c(C)c3c(C)nnc(C)c3c2C)c1 | inactive | –
54 | O=C1c2ccccc2C(=O)C1c1ccc2ccccc2n1 | inconclusive [cytotoxic, single point] | –
55 | O=C(c1ccncc1)N(Cc1cc2ccccc2[nH]c1=O)C1CCCCC1 | active: 5.62 µM | –
56 | COc1cc(CNCc2ccncc2)cc(Br)c1OCc1ccccc1F | inconclusive [cytotoxic, single point] | –
57 | N#CC1=C(N)Oc2cc(N)ccc2C1C1CC=CCC1 (stereo not given) | inconclusive [cytotoxic, single point] | –
58 | C=C(C(=O)c1ccccc1)C(C)C(=C)C(=O)c1ccccc1 | active: 5.8 µM | –
59 | COc1cccc(NC(=O)[C@@H](NC(=O)N2CCn3c2nc2ccccc23)C(C)C)c1 | inconclusive [cytotoxic, partial curve] | –
60 | COc1ccc(CN2CCN(Cc3ccc4ccccc4c3)CC2)cc1OC | inconclusive [cytotoxic, single point] | –
61 | COc1cc(OC)nc(Oc2ccccc2C=O)n1 | inconclusive [cytotoxic, single point] | –
62 | O=C(NCCCn1ccnc1)c1cc2nc(-c3ccc(Br)cc3)cc(C(F)(F)F)n2n1 | inconclusive [cytotoxic, partial curve, poor fit] | –
63 | O=C(N/N=C/c1ccc([N+](=O)[O-])s1)C(O)c1ccccc1 (stereo not given) | inconclusive [cytotoxic, partial curve] | –
64 | COc1ccc(NS(=O)(=O)c2ccc(N/N=C(\C)c3ccncc3)c([N+](=O)[O-])c2)cc1 | – | inconclusive: -29% [cytotoxic]
65 | O=C1CN(/N=C/c2ccc([N+](=O)[O-])o2)C(=O)N1 | inconclusive [cytotoxic, single point] | –
66 | C=CCC1CCCCC12NC(=O)N(c1ccccc1)N2 (stereo not given) | inconclusive [cytotoxic, single point] | –
67 | CC(O)(c1ccccc1)c1nc(-c2ccc(F)c(Cl)c2)cs1 (stereo not given) | inconclusive [cytotoxic, single point] | –
68 | COc1ccc(-c2ccc(C(=O)NCc3ccccc3)c3occc23)c(C)c1 | inconclusive [cytotoxic, single point] | –
69 | CCOC(=O)C1CCN(C(=O)CSc2nc3ncccc3[nH]2)CC1 | inactive | –
70 | COC(=O)/C(=C(/F)Sc1cc(C)c(O)c(C)c1)C(F)(F)F | inconclusive [cytotoxic, single point] | –
